This experiment has as its target Nonstructural protein 3 (Zika virus) (UniProt A0A024AXB9).
Setting [1] is: PRVABC59, Concentration 15.0 uM, Number of replicates 1.0.
The mark [2] stands for this setting: PRVABC59, Concentration 50.0 uM, Number of replicates 1.0.
Setting [3] is: PRVABC59, Concentration 10.0 uM, Number of replicates 1.0.

In all, about 2,700 compounds went through this assay and about 160 (5.9%) showed an effect of 50% or more. The list shows a part of the results.

What is called inhibition is the drop in the measured response relative to a control, in per cent.

Chain of UniProt A0A024AXB9 (A0A024AXB9 as listed by the source): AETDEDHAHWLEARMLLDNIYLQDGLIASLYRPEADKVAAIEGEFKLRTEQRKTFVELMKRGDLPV

As for `O=C(c1cc(Cl)ccc1NS(=O)(=O)c1ccc(Oc2ccccc2Cl)cc1)N1CCC(n2c(=O)[nH]c3ccccc32)CC1`, the inhibition under setting [1] is 15.6%.
In the case of `O=C(NCc1ccc([N+](=O)[O-])cc1)c1cc(Cl)ccc1NS(=O)(=O)c1ccc(Oc2ccccc2Cl)cc1`, the inhibition under setting [1] was 41.7%.
Consider `O=C(N[C@@H](Cc1ncc[nH]1)c1ccccc1)c1ccc2c(c1)B(O)OC2`, for which the inhibition runs as follows: (PRVABC59, Concentration 49.5 uM, Number of replicates 2.0, Standard deviation 0.6415056750946746 %) -1.31%; (PRVABC59, Concentration 99.01 uM, Number of replicates 2.0, Standard deviation 0.7886024964496671 %) -0.838%; (PRVABC59, Concentration 198.0 uM, Number of replicates 2.0, Standard deviation 0.8805381125294807 %) 1.82%.
Regarding `CCN1CCOC[C@H]1C(=O)Nc1cc(Cl)cc(C(=O)NC(C)(C)CO)c1`, the inhibition is, setting by setting: (PRVABC59, Concentration 49.5 uM, Number of replicates 2.0, Standard deviation 1.425535849610213 %) -1.8%; (PRVABC59, Concentration 99.01 uM, Number of replicates 2.0, Standard deviation 1.345541763339264 %) -2.76%; (PRVABC59, Concentration 198.0 uM, Number of replicates 2.0, Standard deviation 3.0049064318797343 %) -3.73%.
As for `O=C1CC2(CCN(C(=O)c3cc(Cl)ccc3NS(=O)(=O)c3ccc(Oc4ccccc4Cl)cc3)CC2)Oc2ccccc21`, the inhibition under setting [1] turned out to be 8.92%.
For the compound `CN1CCN(C(=O)C2CCN(C(=O)C3CCN(c4ccc(C=O)cc4)CC3)CC2)CC1`, the inhibition under setting [2] stood at 21.1%.
As to `CN1CCN2CCN(C(=O)c3cc(Cl)ccc3NS(=O)(=O)c3ccc(Oc4ccccc4Cl)cc3)C[C@H]2C1`, the inhibition under setting [1] worked out at 11.4%.
Same read-out and setting: with `Cc1ccc2nc(NC(=O)c3cc(Cl)ccc3NS(=O)(=O)c3ccc(Oc4ccccc4Cl)cc3)sc2c1` the figure was 24.8%; with `Cc1cc(I)ccc1NC(=O)c1cc(Cl)ccc1NS(=O)(=O)c1ccc(Oc2ccccc2Cl)cc1`, 20.7%.
`CC(C)(CO)NC(=O)c1cc(Cl)cc(NC(=O)c2cncc(N3CCOCC3)c2)c1`: the inhibition was 1.43% (PRVABC59, Concentration 49.5 uM, Number of replicates 2.0, Standard deviation 1.0632470189008745 %); 5.47% (PRVABC59, Concentration 99.01 uM, Number of replicates 2.0, Standard deviation 2.7807996686423335 %); 10.3% (PRVABC59, Concentration 198.0 uM, Number of replicates 2.0, Standard deviation 2.856881979462441 %).
Consider `Cc1cc(CO)c2cccc(NC(=O)c3cc(C(=O)O)[nH]n3)c2n1`, for which the inhibition reads like this: (PRVABC59, Concentration 49.95 uM, Number of replicates 2.0, Standard deviation 8.576009209154032 %) -3.08%; (PRVABC59, Concentration 99.9 uM, Number of replicates 2.0, Standard deviation 1.7362781995069096 %) 11.3%.
For `Cc1cc(CO)c2cccc(NC(=O)c3cnn(Cc4c(C)noc4C)c3)c2n1`, the inhibition (PRVABC59, Concentration 49.95 uM, Number of replicates 2.0, Standard deviation 2.012275994043529 %) was -0.018% and the inhibition (PRVABC59, Concentration 99.9 uM, Number of replicates 2.0, Standard deviation 1.7312603643105966 %) worked out at 9.24%.
Turning to `COc1cc(CS(=O)(=O)[C@H]2CCOC2)nc(N2CCNCC2)n1`, the inhibition is, setting by setting: (PRVABC59, Concentration 49.5 uM, Number of replicates 2.0, Standard deviation 1.5958215087676872 %) 1.88%; (PRVABC59, Concentration 99.01 uM, Number of replicates 2.0, Standard deviation 0.03613889954936311 %) 2.15%; (PRVABC59, Concentration 198.0 uM, Number of replicates 2.0, Standard deviation 0.22444208356415332 %) 4.22%.
For `CC1(C)CCC(CN2CCN(C(=O)C3CCN(c4ccc(C=O)cc4)CC3)CC2)=C(c2ccc(Cl)cc2)C1`, the inhibition under setting [2] came to 25.8%.
Turning to `CS(=O)(=O)N1CCC(C(=O)Nc2nc3c(F)cccc3s2)CC1`, the inhibition by setting is: (PRVABC59, Concentration 49.5 uM, Number of replicates 2.0, Standard deviation 3.126747618274968 %) 2.65%; (PRVABC59, Concentration 99.01 uM, Number of replicates 2.0, Standard deviation 1.0594119507143227 %) 2.8%; (PRVABC59, Concentration 198.0 uM, Number of replicates 2.0, Standard deviation 0.41034660613649154 %) 3.1%.
As for `O=C(NC(c1ccccc1)c1ccccc1)c1cc(Cl)ccc1NS(=O)(=O)c1ccc(Oc2ccccc2Cl)cc1`, the inhibition under setting [1] stood at 55%.
Consider `O=C(c1cc(Cl)ccc1NS(=O)(=O)c1ccc(Oc2ccccc2Cl)cc1)N1CCN(c2ccc(O)cc2)CC1`, for which the inhibition under setting [1] came out at 34%.
Same read-out and setting: with `CC(C)C(=O)N1CCN(C(=O)c2cc(Cl)ccc2NS(=O)(=O)c2ccc(Oc3ccccc3Cl)cc2)CC1` the figure was 2.52%.
For `Nc1ccc(Br)c2ncccc12`, the inhibition was found to be 0.823% (PRVABC59, Concentration 49.95 uM, Number of replicates 2.0, Standard deviation 11.698119789008983 %) and 6.58% (PRVABC59, Concentration 99.9 uM, Number of replicates 2.0, Standard deviation 11.331169601148035 %).
In the case of `CSCC[C@H](NC(=O)OC(C)(C)C)C(=O)N1CCC[C@H]1C(=O)NCc1ccncc1`, the inhibition reads like this: (PRVABC59, Concentration 49.5 uM, Number of replicates 2.0, Standard deviation 0.6637967639504498 %) -0.231%; (PRVABC59, Concentration 99.01 uM, Number of replicates 2.0, Standard deviation 3.044759606747817 %) -1.27%; (PRVABC59, Concentration 198.0 uM, Number of replicates 2.0, Standard deviation 2.9620569954041636 %) -0.452%.
In the case of `CC(C)(CO)NC(=O)c1cc(Cl)cc(NC(=O)c2cc(-c3ccc(Cl)cc3)n[nH]2)c1`, the inhibition is, setting by setting: (PRVABC59, Concentration 49.5 uM, Number of replicates 2.0, Standard deviation 0.03613898384306013 %) 1.66%; (PRVABC59, Concentration 99.01 uM, Number of replicates 2.0, Standard deviation 0.34807548039861586 %) 1.53%; (PRVABC59, Concentration 198.0 uM, Number of replicates 2.0, Standard deviation 0.2225400542427734 %) -0.261%.
As to `COCCCN1CCC(NC(=O)C2CCN(c3ccc(C=O)cc3)CC2)CC1`, the inhibition under setting [2] is 28.2%.
As to `O=C(NCCc1ccccc1[N+](=O)[O-])c1cc(Cl)ccc1NS(=O)(=O)c1ccc(Oc2ccccc2Cl)cc1`, the inhibition under setting [1] is 27.9%.
The same measure, in the same setting: next, `O=C(Nc1nc(-c2ccc(Cl)c(Cl)c2)cs1)c1cc(Cl)ccc1NS(=O)(=O)c1ccc(Oc2ccccc2Cl)cc1`: 26.5%; `C[C@H](NC(=O)c1cc(Cl)ccc1NS(=O)(=O)c1ccc(Oc2ccccc2Cl)cc1)C12CC3CC(CC(C3)C1)C2`: 25.1%.
Take `CC(C)(C)[C@H](NC(=O)C1CCN(c2ccc(C=O)cc2)CC1)c1ccccc1`: the inhibition under setting [3] came to 20.8%.
Still for that read-out and setting: with `O=Cc1ccc(N2CCC(C(=O)NCc3ccccc3OC(F)(F)F)CC2)cc1` the figure was 23%.
As to `O=Cc1ccc(N2CCC(C(=O)NCc3noc(-c4cccs4)n3)CC2)cc1`, the inhibition under setting [3] is 22.6%.
In the case of `Cc1nn(Cc2cn(-c3ccccc3)nn2)cc1C1CCNCC1`, the inhibition runs as follows: (PRVABC59, Concentration 49.5 uM, Number of replicates 2.0, Standard deviation 0.6133583009007375 %) -0.435%; (PRVABC59, Concentration 99.01 uM, Number of replicates 2.0, Standard deviation 1.23031396538442 %) 1.69%; (PRVABC59, Concentration 198.0 uM, Number of replicates 2.0, Standard deviation 0.9515146698272816 %) 6.21%.
With `N#Cc1ccc(N2CCN(C(=O)C3CCN(c4ccc(C=O)cc4)CC3)CC2)nc1`, the inhibition under setting [2] is 23.5%.
With `O=C(NCC(c1ccccc1)c1ccccc1)c1cc(Cl)ccc1NS(=O)(=O)c1ccc(Oc2ccccc2Cl)cc1`, the inhibition under setting [1] is 12.2%.
With `O=C(NCc1noc(-c2cccs2)n1)c1cc(Cl)ccc1NS(=O)(=O)c1ccc(Oc2ccccc2Cl)cc1`, the inhibition under setting [1] was 51.9%.
In the case of `O=Cc1ccc(N2CCC(C(=O)NCc3ccc(Cl)c(C(F)(F)F)c3)CC2)cc1`, the inhibition under setting [3] was 11.8%.
As to `O=C(c1cc(Cl)ccc1NS(=O)(=O)c1ccc(Oc2ccccc2Cl)cc1)N1CC2C[C@H]3CC1C[C@H](C2)C3`, the inhibition under setting [1] turned out to be 26.1%.
In the case of `Cc1cnccc1NC(=O)c1coc2c1C(=O)NCCC2`, the inhibition runs as follows: (PRVABC59, Concentration 49.5 uM, Number of replicates 2.0, Standard deviation 2.0082804728046963 %) 0.123%; (PRVABC59, Concentration 99.01 uM, Number of replicates 2.0, Standard deviation 1.1195703761085367 %) -0.899%; (PRVABC59, Concentration 198.0 uM, Number of replicates 2.0, Standard deviation 0.46580663256761273 %) 0.832%.
For the compound `Cc1cc(CO)c2cccc(Cc3cccc(C(=O)N4C[C@H](O)C[C@H]4C(=O)O)c3)c2n1`, the inhibition is, setting by setting: (PRVABC59, Concentration 49.95 uM, Number of replicates 2.0, Standard deviation 0.9333357225401687 %) -4.13%; (PRVABC59, Concentration 99.9 uM, Number of replicates 2.0, Standard deviation 0.5138590553450048 %) -0.701%.
For `COCCCN(Cc1ccccc1)C(=O)c1cc(Cl)ccc1NS(=O)(=O)c1ccc(Oc2ccccc2Cl)cc1`, under setting [1], the inhibition was found to be 22.5%.
Turning to `CCn1ccnc(NC[C@H](c2ccccc2)c2c[nH]c3ccccc23)c1=O`, the inhibition is 8.63% (PRVABC59, Concentration 49.5 uM, Number of replicates 2.0, Standard deviation 3.1091602020067053 %); -1.99% (PRVABC59, Concentration 99.01 uM, Number of replicates 2.0, Standard deviation 11.310073080419604 %); -0.815% (PRVABC59, Concentration 198.0 uM, Number of replicates 2.0, Standard deviation 0.369886516649852 %).
On to `O=C(OCc1ccccc1)N1C[C@@H](O)[C@H](c2c[nH]c3ccccc23)C1`, for which the inhibition by setting is: (PRVABC59, Concentration 49.5 uM, Number of replicates 2.0, Standard deviation 3.519576771911725 %) 6.6%; (PRVABC59, Concentration 99.01 uM, Number of replicates 2.0, Standard deviation 2.873595059358345 %) 10.9%; (PRVABC59, Concentration 198.0 uM, Number of replicates 2.0, Standard deviation 0.8741263124655184 %) 12.2%.

For the origin of these results see ChEMBL document CHEMBL5606458, “ASAP - ZIKV NS2B-NS3 protease fluorescence single point” (2024).
